Test results from PubChem BioAssay AID2546 (National Center for Advancing Translational Sciences (NCATS), 2010).
About 11,000 (3.5%) of roughly 310,000 compounds were called active. Inconclusive means that the source gave no clear call. Such entries were picked first, then a sample of the others. Calls come from the whole dose curve; as a rule, active = well fitted inhibition curve with a large enough effect; inconclusive = small, poorly fitted or top-dose-only effect, or effect the other way; inactive = flat fitted curve, though single readings scatter. No potency is given beside an inconclusive call; the fits are too rough.
Potency is the fitted concentration of half-maximal effect; tags give direction and shape of the fitted curve.

Assay: VP16 counterscreen qHTS for inhibitors of ROR gamma transcriptional activity;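 note: Gal4-VP16 expression switched on by copper sulfate through the metallothionein promoter; nearly all actives have a fitted effect of over 50% in size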
Conditions: Drosophila S2 Gal4-VP16 UAS-luciferase, luminescence, 20 h; series mostly up to 53.6 µM
For `CCOc1ccc2nc(SC3CC(=O)N(c4ccccc4)C3=O)sc2c1` (stereo not drawn), the Potency was active: 12.6 µM.
With `COc1ccccc1NC(=O)C1CCN(S(=O)(=O)c2ccc3c(c2)NC(=O)CO3)CC1` the Potency was “inactive”.
In the case of `CN(C)c1ccc(/C=N\NC(=O)c2cccc3cc[nH]c23)cc1`, the Potency is reported as inconclusive [inhibitor, single point].
With `Cc1ccc(NC(=S)Nc2cc(C(=O)O)ccc2N2CC3CC(C2)c2cccc(=O)n2C3)cc1C` (stereo not drawn) the Potency was active: 20 µM.
In the case of `Cc1cc(C)cc(N(CC(=O)N2CC=C(c3ccccc3)CC2)S(=O)(=O)c2c(C)noc2C)c1`, the Potency is reported as inconclusive [inhibitor, full curve].
In the case of `Cc1ccc([N+](=O)[O-])cc1NC(=S)NCCc1ccccc1`, the Potency is reported as inconclusive [inhibitor, single point].
With `Oc1ccc2ccccc2c1C=Nc1ccc(N2CCOCC2)cc1` the Potency was inconclusive [inhibitor, single point].
In the case of `CCN(CC)S(=O)(=O)c1ccc(OC)c(NC(=S)Nc2cc(C)ccc2C)c1`, the Potency is reported as inconclusive [inhibitor, partial curve, poor fit].
For `O=C(Cc1ccc(Cl)cc1)Nc1cccc(-c2nnc(-c3ccco3)o2)c1`, the Potency was “inactive”.
For `CC(C)[C@@H]1CC[C@@H](C)c2c(-c3ccccc3)n[nH]c21`, the Potency was inconclusive [inhibitor, single point].
In the case of `COc1cc(/C=C(/C#N)C(=O)Nc2ccc(C)cc2)ccc1Oc1nc(Cl)ncc1F`, the Potency is reported as inconclusive [inhibitor, single point].
With `Cc1cc(NC(=O)CSc2ccc(-c3ccc(F)cc3)nn2)no1` the Potency was “inactive”.
With `COC(=O)c1ccc2c(=O)n(Cc3ccc(C(=O)NCCCN4CCC(C)CC4)cc3)c(=S)[nH]c2c1` the Potency was inconclusive [inhibitor, single point].
With `COc1ccc(CN2CCn3ncc(C(=O)Nc4cc(C)cc(C)c4)c3C2=O)cc1` the Potency was inconclusive [inhibitor, single point].
With `CS(=O)(=O)c1nc(S(=O)(=O)c2ccc(Cl)cc2)c(NCCCn2ccnc2)s1` the Potency was “inactive”.
In the case of `Fc1cc(F)c(C2SCCN2C(=S)Nc2cccc(C(F)(F)F)c2)c(F)c1` (stereo not drawn), the Potency is reported as inconclusive [inhibitor, single point].
With `Cc1cccc(COCC(Cc2ccccc2)N2CCN(C(=O)c3ccc(C(F)(F)F)cc3)CCC2=O)c1` (stereo not drawn) the Potency was inconclusive [inhibitor, single point].
For `COc1ccccc1N1CCN(C(=O)c2cc3cc(Cl)ccc3[nH]2)CC1`, the Potency was inconclusive [inhibitor, single point].
